Assay results: PubChem BioAssay AID624417 (National Center for Advancing Translational Sciences (NCATS), 2012)
Out of some 410,000 compounds screened, about 6,400 (1.6%) were called active. The shares of active, inactive and inconclusive entries below differ from those in the screen. Calls follow the shape of the dose curve; as a rule, active = well fitted inhibition curve with a large enough effect; inconclusive = small, poorly fitted or top-dose-only effect; inactive = no such curve, though single readings can be large or run the other way. Where the call is inconclusive, the potency comes from a doubtful curve fit.

biological target: Glucagon-like peptide 1 receptor (Homo sapiens) (UniProt P43220); assay: qHTS of GLP-1 Receptor Inverse Agonists (Inhibition Mode); details: HEK293 GLP-1R CRE-luciferase, luminescence, 24 h, GLP-1R form is constitutively active; activity change, negative = inhibition: at 38.3 µM (top of the series) unless noted; also: nearly all actives have a fitted effect of over 55% in size
How it was run: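 Seeding at 200 cells/uL, 12 h culture, 24 hr compound treatment, then luciferase reagent and a luminescence read; cells are HEK293 stably expressing a constitutively active GLP-1R plus cAMP-responsive luciferase.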
% is scaled to controls: 0 for no effect and ±100 for the full control effect; potency is read from the fitted curve at half-maximal effect; tags tell the direction and shape of the fitted curve.

Chain of UniProt P43220 (P43220 whole entry, looked up): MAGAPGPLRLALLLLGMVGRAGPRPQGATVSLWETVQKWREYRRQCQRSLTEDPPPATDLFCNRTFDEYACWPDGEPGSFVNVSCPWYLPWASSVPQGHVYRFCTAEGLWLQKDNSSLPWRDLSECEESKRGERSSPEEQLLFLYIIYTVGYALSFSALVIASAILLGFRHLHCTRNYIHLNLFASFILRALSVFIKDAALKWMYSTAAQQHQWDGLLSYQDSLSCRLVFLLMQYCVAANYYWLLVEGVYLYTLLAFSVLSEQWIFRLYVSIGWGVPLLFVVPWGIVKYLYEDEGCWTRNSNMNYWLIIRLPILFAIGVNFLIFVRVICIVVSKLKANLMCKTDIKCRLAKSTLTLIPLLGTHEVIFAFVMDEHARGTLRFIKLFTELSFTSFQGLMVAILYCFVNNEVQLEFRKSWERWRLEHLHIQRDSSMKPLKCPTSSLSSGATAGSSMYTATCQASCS

Potency, active:
CC1(C)Cc2c(c(N3CCOCC3)nc3snc(N)c23)CO1 3.98 µM
O=C(Cc1ccc(S(=O)(=O)N2CCCCC2)cc1)NCc1ccc(Cl)cc1 7.08 µM
Cc1ccc(Nc2c(-c3ccc(Cl)cc3)nc3sccn23)c(C)c1 14.1 µM
CC(C)(C)NC(=O)C(c1cccc2ccccc12)n1c(=O)c(-c2cc3ccccc3[nH]2)nc2ccccc21 (stereo not drawn) 6.31 µM

Potency, inconclusive:
C/C(Cl)=C\Cn1c(N2CCCCCC2)nc2c1c(=O)n(C)c(=O)n2C 12.6 µM [inhibitor, single point]
COC(=O)c1ccc(N2NC(=O)/C(=C/c3cc(OC)c(OC)c(OC)c3)C2=O)cc1 31.6 µM [inhibitor, single point]
COCCNC(=O)C1(C)CCCN(Cc2ccc3ccccc3c2Br)C1 (stereo not drawn) 10 µM [inhibitor, single point]
COc1ccc(-c2[nH]ncc2CN2CCC(C(=O)c3ccc(F)cc3)CC2)cc1 28.2 µM [inhibitor, single point]
CCCc1nc2c3ccccc3ccn2c1CC(C)(C)C 28.2 µM [inhibitor, single point]
O=C(CN1CCN(c2ccc(C(F)(F)F)cn2)CC1)NCc1ccc2c(c1)OCO2 12.6 µM [inhibitor, partial curve, poor fit]
CC(C)c1ccc(NC(=O)Nc2nc(C(N)c3ccccc3)cs2)cc1 (stereo not drawn) 28.2 µM [inhibitor, single point]
CC(C)(C)c1ccc(-c2nc(C#N)c(N3CCC(C(N)=O)CC3)o2)cc1 28.2 µM [inhibitor, single point]
C=CCN(CC=C)C(=S)NC(=O)c1ccc([N+](=O)[O-])cc1 1.78 µM [inhibitor, full curve, poor fit]
CC(C)Oc1ccc(C(=O)Nc2cc(S(=O)(=O)N3CCOCC3)ccc2N2CCOCC2)cc1 11.2 µM [inhibitor, single point]
CN(Cc1ccccc1)C(=O)CN1C(=O)NC(C)(c2ccc(C(C)(C)C)cc2)C1=O (stereo not drawn) 8.91 µM [inhibitor, partial curve, poor fit]
CCOc1ccccc1CN(CCc1ccc2c(c1)OCO2)Cc1ccccn1 11.2 µM [inhibitor, partial curve, poor fit]
CCN(Cc1ccccc1)c1ccc(/C=N/N2CCOCC2)cc1 12.6 µM [inhibitor, partial curve, poor fit]
O=C(CS(=O)(=O)Nc1ccc(F)cc1Cl)Nc1ccc(F)cc1Cl 14.1 µM [inhibitor, single point]
Cc1ccc(C(=O)c2cn(Cc3cccc(C)c3)c3nc(C)ccc3c2=O)cc1 10 µM [inhibitor, partial curve, poor fit]
COC(=O)c1c(CSc2cccc(C)c2)noc1C(=O)NCc1ccco1 28.2 µM [inhibitor, single point]
Cc1cc(C(=O)N2CCN(c3ccc([N+](=O)[O-])cc3)CC2)c(C)o1 12.6 µM [inhibitor, partial curve, poor fit]
CCc1ccc(C(=O)Nc2nc(C)cs2)s1 5.01 µM [inhibitor, full curve, poor fit]
COc1ccc(NC(=O)C2Cc3c(-c4ccccc4Oc4ccccc4)ccnc3O2)cc1OC (stereo not drawn) 12.6 µM [inhibitor, partial curve, poor fit]
C=CCc1cccc(CNc2nc3ccccc3n2CCC)c1O 2.51 µM [inhibitor, partial curve, poor fit]
O=C(c1cc(-c2ccc(F)cc2)on1)N1CCOCC1 11.2 µM [inhibitor, single point]
COc1ccc(CCC(=O)Nc2cc(Cl)ccc2N2CCN(C)CC2)cc1 8.91 µM [inhibitor, partial curve, poor fit]
CCCCSC1=C(C#N)C(c2ccccc2C)C(C(=O)OCC)C(=O)N1 (stereo not drawn) 28.2 µM [inhibitor, single point]
Nc1ncnc(Sc2ncccn2)c1[N+](=O)[O-] 11.2 µM [inhibitor, partial curve, poor fit]
O=[N+]([O-])c1cccnc1Oc1cc(Cl)c(Cl)cc1Cl 10 µM [inhibitor, partial curve, poor fit]
Cc1cc(C(=O)OCC(=O)NCc2ccco2)c(C)n1-c1ccccc1 2.24 µM [inhibitor, full curve, poor fit]
Cc1cc(Nc2cccc(Cl)c2)c2ccccc2n1 28.2 µM [inhibitor, single point]
Cc1nn(CC(=O)c2ccc(Br)s2)c(C)c1[N+](=O)[O-] 11.2 µM [inhibitor, single point]
CCC(c1nnnn1CCOC)N1CCN(c2cccc(C(F)(F)F)c2)CC1 (stereo not drawn) 10 µM [inhibitor, partial curve, poor fit]
CN[C@H]1C[C@H]2c3cc(Oc4ccccc4C)ccc3CCN2C(=O)[C@H]1[C@H](C)O 11.2 µM [inhibitor, partial curve, poor fit]
COc1ccc(S(=O)(=O)N(C)c2ccc(C(=O)NCCC(C)C)cc2)cc1 10 µM [inhibitor, partial curve, poor fit]
COc1ccc(CNC(=O)CCC2N=C3c4ccccc4N=C(SCc4cccc(F)c4)N3C2=O)cc1 (stereo not drawn) 25.1 µM [inhibitor, single point]
CC(C)n1c(-c2ccc(N(C)C)cc2)nc2ccccc21 11.2 µM [inhibitor, partial curve, poor fit]
O=[N+]([O-])c1ccc(N/N=C/c2ccc[nH]2)cc1 12.6 µM [inhibitor, single point]
CSc1ccc(/C=C(\C#N)C(=O)NC2CCCCC2C)cc1 (stereo not drawn) 5.62 µM [inhibitor, full curve, poor fit]
COc1ccc(NC(=S)N(CCN(C)C)C(C)c2ccco2)cc1Cl (stereo not drawn) 22.4 µM [inhibitor, partial curve, poor fit]
COC(=O)c1ccccc1NC(=O)C(C)Oc1ccccc1 (stereo not drawn) 10 µM [inhibitor, partial curve]
CCC(C)c1ccccc1OCCCNC1CCCC1 (stereo not drawn) 28.2 µM [inhibitor, partial curve, poor fit]
Cc1cc(/C=C2\SC(=S)N(C)C2=O)c(C)n1-c1ccccc1O 14.1 µM [inhibitor, partial curve, poor fit]
O=C(NC1CCN(Cc2ccccc2)CC1)c1cccc(S(=O)(=O)Nc2ccc(Br)cc2)c1 10 µM [inhibitor, partial curve, poor fit]
CCN(CC)CCN(C(=O)C1=COCCO1)c1nc2ccc(C)cc2s1 31.6 µM [inhibitor, single point]
CCOc1ccccc1NC(=O)CN(c1ccc(C)cc1)S(=O)(=O)c1c(C)noc1C 28.2 µM [inhibitor, single point]
Cc1ccccc1CC1(CO)CCCN(C(=O)Cc2c(F)ccc(F)c2F)C1 (stereo not drawn) 12.6 µM [inhibitor, single point]
CC(c1ccccc1)N1CCN(C(=O)CCl)CC1 (stereo not drawn) 11.2 µM [inhibitor, partial curve, poor fit]
COc1cccc(N2CCN(C(=O)CCCn3c(=O)[nH]c4ccc(Br)cc4c3=O)CC2)c1 12.6 µM [inhibitor, partial curve, poor fit]
COc1ccc(-c2csc(C(O)c3ccc(F)c(F)c3)n2)cn1 (stereo not drawn) 12.6 µM [inhibitor, single point]
O=C(c1ccc(CSc2ccc(Cl)cc2)cc1)N1CCOCC1 31.6 µM [inhibitor, single point]
O=C(NCCNc1ccc([N+](=O)[O-])cc1Cl)c1ccccc1F 2.24 µM [inhibitor, full curve, poor fit]
O=C(CN1C(=O)NC2(CCCCCC2)C1=O)Nc1ccc(Cl)c([N+](=O)[O-])c1 3.16 µM [inhibitor, partial curve, poor fit]
COc1cccc(-c2cc(C(=O)N3CCCCC3C)no2)c1 (stereo not drawn) 14.1 µM [inhibitor, single point]

Activity change, negative = inhibition, inactive:
COC(=O)c1cc(S(=O)(=O)N2CCN(c3ccc(OC)cc3)CC2)c[nH]1 6.7%
COc1cc(C(=O)OCC(=O)N2CCCC2=O)cc(OC)c1C 9.44%
O=C(C[n+]1ccccc1)N/N=C/c1cc(Br)ccc1O 7.97%
CCCOc1ccc(-c2nnc(-c3cccs3)o2)cc1 15.4%
Cc1ccc(CNC(=O)c2nc(SCc3ccc(F)cc3)ncc2Cl)cc1 3.58%
CC1CCN(c2ccc(NC(=S)NC(=O)c3ccc(-c4cccc([N+](=O)[O-])c4)o3)cc2)CC1 0%
Cc1ccc(S(=O)(=O)N2CCC(C(=O)NCCCn3ccnc3)CC2)cc1 -27.3%
Cc1cc(C)n(-c2nc3ccccc3nc2Nc2ccc(Cl)cc2Cl)n1 10.3%
CCOc1ccc(CNC(=O)c2ccc3nc(CC)c(CC)nc3c2)cc1 27.1%
